# The other results are listed elsewhere or left out.
# B1: RegIIIgamma (Mus musculus), O09049 (protein)
# chain: MLPRITITIMSWMLLSCLMLLSQVQGEVAKKDAPSSRSSCPKGSRAYGSYCYALFSVSKNWYDADMACQKRPSGHLVSVLSGAEASFLSSMIKSSGNSGQYVWIGLHDPTLGYEPNRGGWEWSNADVMNYINWETNPSSSSGNHCGTLSRASGFLKWRENYCNLELPYVCKFKA
# Legend:
# Test in all cases: glycan array binding signal (z-score within array); higher = stronger binding
# Details in all cases: glycan notation: IUPAC condensed, linker removed
# [1] = biological target: Gal(b1-4)GlcNAc(b1-6)[Gal(b1-3)]GalNAc
# Procedure, shortened: (§1)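 Glycan array data were curated from 3228 arrays in the Consortium for Functional Glycomics database and kept only where the protein sequence was available. Glycan names were converted to IUPAC-condensed notation, and columns mapping to the same glycan were averaged. The binding signal is a within-array Z-score, averaged across arrays of the same protein sequence at different concentrations or buffers and across linkers. Negative Z-scores can be read as non-binding.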
# [2] = biological target: Gal3S(b1-3)GalNAc
# Procedure, shortened: as §1
# [3] = biological target: Gal3S(b1-3)GlcNAc
# Procedure, shortened: as §1
# [4] = biological target: Gal3S(b1-3)[Fuc(a1-4)]GlcNAc
# Procedure, shortened: as §1
# [5] = biological target: Gal3S(b1-4)Glc
# Procedure, shortened: as §1
# [6] = biological target: Gal3S(b1-4)Glc6S
# Procedure, shortened: as §1
# [7] = biological target: Gal3S(b1-4)GlcNAc
# Procedure, shortened: as §1
# [8] = biological target: Gal4S(b1-4)GlcNAc
# Procedure, shortened: as §1
# [9] = biological target: Gal6S(b1-4)Glc
# Procedure, shortened: as §1
# [10] = biological target: Gal6S(b1-4)Glc6S
# Procedure, shortened: as §1
# [11] = biological target: GalNAc(a1-3)Gal
# Procedure, shortened: as §1
# [12] = biological target: GalNAc(a1-3)GalNAc
# Procedure, shortened: as §1
# [13] = biological target: GalNAc(b1-3)GalNAc
# Procedure, shortened: as §1
# [14] = biological target: GalNAc(b1-4)GlcNAc
# Procedure, shortened: as §1
# [15] = biological target: Glc(a1-4)Glc
# Procedure, shortened: as §1
# [16] = biological target: Glc(b1-4)Glc
# Procedure, shortened: as §1
# [17] = biological target: Glc(b1-6)Glc
# Procedure, shortened: as §1
# [18] = biological target: GlcNAc(b1-2)Gal(b1-3)GalNAc
# Procedure, shortened: as §1
# [19] = biological target: GlcNAc(b1-3)Gal
# Procedure, shortened: as §1
# [20] = biological target: GlcNAc(b1-3)Gal(b1-3)GalNAc
# Procedure, shortened: as §1
# [21] = biological target: GlcNAc(b1-3)Gal(b1-4)Glc
# Procedure, shortened: as §1
# [22] = biological target: GlcNAc(b1-3)Gal(b1-4)GlcNAc
# Procedure, shortened: as §1
# [23] = biological target: GlcNAc(b1-3)[GlcNAc(b1-6)]GalNAc
# Procedure, shortened: as §1
# [24] = biological target: GlcNAc(b1-3)[GlcNAc(b1-6)]GlcNAc(b1-4)GlcNAc
# Procedure, shortened: as §1
# [25] = biological target: GlcNAc(b1-4)GlcNAc(b1-4)GlcNAc
# Procedure, shortened: as §1
# [26] = biological target: GlcNAc(b1-4)[GlcNAc(b1-6)]GalNAc
# Procedure, shortened: as §1
# [27] = biological target: GlcNAc(b1-6)GalNAc
# Procedure, shortened: as §1
# [28] = biological target: Kdn(a2-3)Gal(b1-3)GlcNAc
# Procedure, shortened: as §1
# [29] = biological target: Kdn(a2-3)Gal(b1-4)GlcNAc
# Procedure, shortened: as §1
# [30] = biological target: Man(a1-2)Man(a1-2)Man(a1-3)Man
# Procedure, shortened: as §1
# [31] = biological target: Man(a1-2)Man(a1-2)Man(a1-6)[Man(a1-3)]Man
# Procedure, shortened: as §1
# [32] = biological target: Man(a1-2)Man(a1-3)Man
# Procedure, shortened: as §1
# [33] = biological target: Man(a1-2)Man(a1-3)[Man(a1-2)Man(a1-6)]Man
# Procedure, shortened: as §1
# [34] = biological target: Man(a1-2)Man(a1-3)[Man(a1-2)Man(a1-6)]Man(a1-6)[Man(a1-2)Man(a1-2)Man(a1-3)]Man(b1-4)GlcNAc(b1-4)GlcNAc
# Procedure, shortened: as §1
# [35] = biological target: Man(a1-2)Man(a1-3)[Man(a1-2)Man(a1-6)]Man(a1-6)[Man(a1-3)[Man(a1-6)]Man(a1-6)]Man(b1-4)GlcNAc(b1-4)GlcNAc
# Procedure, shortened: as §1
# [36] = biological target: Man(a1-2)Man(a1-3)[Man(a1-6)]Man(a1-6)[Man(a1-2)Man(a1-3)]Man(b1-4)GlcNAc(b1-4)GlcNAc
# Procedure, shortened: as §1
# [37] = biological target: Man(a1-2)Man(a1-6)[Man(a1-3)]Man(a1-6)[Man(a1-2)Man(a1-2)Man(a1-3)]Man(b1-4)GlcNAc(b1-4)GlcNAc
# Procedure, shortened: as §1
# [38] = biological target: Man(a1-3)[Man(a1-6)]Man
# Procedure, shortened: as §1
# [39] = biological target: Man(a1-3)[Man(a1-6)]Man(a1-6)[Man(a1-3)]Man(b1-4)GlcNAc(b1-4)GlcNAc
# Procedure, shortened: as §1
# [40] = biological target: Neu5Ac(a2-3)Gal
# Procedure, shortened: as §1
# [41] = biological target: Neu5Ac(a2-3)Gal(b1-3)GalNAc
# Procedure, shortened: as §1
# [42] = biological target: Neu5Ac(a2-3)Gal(b1-3)GalNAc6S
# Procedure, shortened: as §1
# [43] = biological target: Neu5Ac(a2-3)Gal(b1-3)GlcNAc
# Procedure, shortened: as §1
# [44] = biological target: Neu5Ac(a2-3)Gal(b1-3)[Fuc(a1-4)]GlcNAc
# Procedure, shortened: as §1
# [45] = biological target: Neu5Ac(a2-3)Gal(b1-3)[Neu5Ac(a2-3)Gal(b1-4)]GlcNAc
# Procedure, shortened: as §1
# [46] = biological target: Neu5Ac(a2-3)Gal(b1-3)[Neu5Ac(a2-6)]GalNAc
# Procedure, shortened: as §1
# [47] = biological target: Neu5Ac(a2-3)Gal(b1-4)Glc
# Procedure, shortened: as §1
# [48] = biological target: Neu5Ac(a2-3)Gal(b1-4)GlcNAc
# Procedure, shortened: as §1
# [49] = biological target: Neu5Ac(a2-3)Gal(b1-4)GlcNAc(b1-3)Gal(b1-4)GlcNAc
# Procedure, shortened: as §1
# [50] = biological target: Neu5Ac(a2-3)Gal(b1-4)GlcNAc(b1-3)Gal(b1-4)GlcNAc(b1-3)Gal(b1-4)GlcNAc
# Procedure, shortened: as §1
# [51] = biological target: Neu5Ac(a2-3)Gal(b1-4)GlcNAc6S
# Procedure, shortened: as §1
# [52] = biological target: Neu5Ac(a2-3)Gal(b1-4)[Fuc(a1-3)]GlcNAc
# Procedure, shortened: as §1
# [53] = biological target: Neu5Ac(a2-3)Gal(b1-4)[Fuc(a1-3)]GlcNAc(b1-3)Gal
# Procedure, shortened: as §1
# [54] = biological target: Neu5Ac(a2-3)Gal(b1-4)[Fuc(a1-3)]GlcNAc(b1-3)Gal(b1-4)GlcNAc
# Procedure, shortened: as §1
# [55] = biological target: Neu5Ac(a2-3)Gal(b1-4)[Fuc(a1-3)]GlcNAc(b1-3)Gal(b1-4)[Fuc(a1-3)]GlcNAc(b1-3)Gal(b1-4)[Fuc(a1-3)]GlcNAc
# Procedure, shortened: as §1
# [56] = biological target: Neu5Ac(a2-3)Gal(b1-4)[Fuc(a1-3)]GlcNAc6S
# Procedure, shortened: as §1
# [57] = biological target: Neu5Ac(a2-3)Gal6S(b1-4)GlcNAc
# Procedure, shortened: as §1
# [58] = biological target: Neu5Ac(a2-3)GalNAc
# Procedure, shortened: as §1
# [59] = biological target: Neu5Ac(a2-3)[GalNAc(b1-4)]Gal(b1-4)Glc
# Procedure, shortened: as §1
# [60] = biological target: Neu5Ac(a2-3)[GalNAc(b1-4)]Gal(b1-4)GlcNAc
# Procedure, shortened: as §1
binder,measurement,setting,value
B1,glycan array binding signal (z-score),[1],-0.279
same,glycan array binding signal (z-score),[2],-0.134
same,glycan array binding signal (z-score),[3],-0.183
same,glycan array binding signal (z-score),[4],-0.14
same,glycan array binding signal (z-score),[5],-0.106
same,glycan array binding signal (z-score),[6],0.136
same,glycan array binding signal (z-score),[7],-0.128
same,glycan array binding signal (z-score),[8],1.17
same,glycan array binding signal (z-score),[9],-0.12
same,glycan array binding signal (z-score),[10],0.13
same,glycan array binding signal (z-score),[11],-0.276
same,glycan array binding signal (z-score),[12],-0.261
same,glycan array binding signal (z-score),[13],-0.279
same,glycan array binding signal (z-score),[14],-0.248
same,glycan array binding signal (z-score),[15],-0.187
same,glycan array binding signal (z-score),[16],-0.236
same,glycan array binding signal (z-score),[17],-0.213
same,glycan array binding signal (z-score),[18],-0.266
same,glycan array binding signal (z-score),[19],-0.266
same,glycan array binding signal (z-score),[20],-0.218
same,glycan array binding signal (z-score),[21],-0.258
same,glycan array binding signal (z-score),[22],-0.278
same,glycan array binding signal (z-score),[23],-0.28
same,glycan array binding signal (z-score),[24],-0.25
same,glycan array binding signal (z-score),[25],-0.185
same,glycan array binding signal (z-score),[26],-0.271
same,glycan array binding signal (z-score),[27],-0.303
same,glycan array binding signal (z-score),[28],-0.064
same,glycan array binding signal (z-score),[29],0.423
same,glycan array binding signal (z-score),[30],0.028
same,glycan array binding signal (z-score),[31],-0.256
same,glycan array binding signal (z-score),[32],-0.224
same,glycan array binding signal (z-score),[33],-0.205
same,glycan array binding signal (z-score),[34],-0.15
same,glycan array binding signal (z-score),[35],-0.191
same,glycan array binding signal (z-score),[36],-0.134
same,glycan array binding signal (z-score),[37],-0.06
same,glycan array binding signal (z-score),[38],-0.224
same,glycan array binding signal (z-score),[39],-0.192
same,glycan array binding signal (z-score),[40],-0.165
same,glycan array binding signal (z-score),[41],-0.16
same,glycan array binding signal (z-score),[42],-0.033
same,glycan array binding signal (z-score),[43],-0.18
same,glycan array binding signal (z-score),[44],-0.221
same,glycan array binding signal (z-score),[45],-0.111
same,glycan array binding signal (z-score),[46],-0.095
same,glycan array binding signal (z-score),[47],-0.178
same,glycan array binding signal (z-score),[48],-0.21
same,glycan array binding signal (z-score),[49],-0.209
same,glycan array binding signal (z-score),[50],-0.032
same,glycan array binding signal (z-score),[51],0.024
same,glycan array binding signal (z-score),[52],-0.126
same,glycan array binding signal (z-score),[53],-0.205
same,glycan array binding signal (z-score),[54],0.043
same,glycan array binding signal (z-score),[55],0.253
same,glycan array binding signal (z-score),[56],0.008
same,glycan array binding signal (z-score),[57],-0.017
same,glycan array binding signal (z-score),[58],-0.225
same,glycan array binding signal (z-score),[59],-0.145
same,glycan array binding signal (z-score),[60],-0.028

# Source: the supplement of paper PMC8728848
